# Paper PMC4336329 (PLoS ONE, 2015)
# The campaign covered roughly 310,000 compounds. About 14,000 (4.5%) showed an effect of 50% or more. The effect is printed as a negative number. Some of the results follow.
# Target: human ether-à-go-go-related gene (hERG) potassium channel (human, UniProt Q12809)
# Assay: primary screen, population patch clamp on CHO cells stably expressing hERG
# 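Further: peak tail current of the secondary pulse compared with the same well before compound.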
# human ether-à-go-go-related gene (hERG) potassium channel, sequence (Q12809 whole entry, looked up): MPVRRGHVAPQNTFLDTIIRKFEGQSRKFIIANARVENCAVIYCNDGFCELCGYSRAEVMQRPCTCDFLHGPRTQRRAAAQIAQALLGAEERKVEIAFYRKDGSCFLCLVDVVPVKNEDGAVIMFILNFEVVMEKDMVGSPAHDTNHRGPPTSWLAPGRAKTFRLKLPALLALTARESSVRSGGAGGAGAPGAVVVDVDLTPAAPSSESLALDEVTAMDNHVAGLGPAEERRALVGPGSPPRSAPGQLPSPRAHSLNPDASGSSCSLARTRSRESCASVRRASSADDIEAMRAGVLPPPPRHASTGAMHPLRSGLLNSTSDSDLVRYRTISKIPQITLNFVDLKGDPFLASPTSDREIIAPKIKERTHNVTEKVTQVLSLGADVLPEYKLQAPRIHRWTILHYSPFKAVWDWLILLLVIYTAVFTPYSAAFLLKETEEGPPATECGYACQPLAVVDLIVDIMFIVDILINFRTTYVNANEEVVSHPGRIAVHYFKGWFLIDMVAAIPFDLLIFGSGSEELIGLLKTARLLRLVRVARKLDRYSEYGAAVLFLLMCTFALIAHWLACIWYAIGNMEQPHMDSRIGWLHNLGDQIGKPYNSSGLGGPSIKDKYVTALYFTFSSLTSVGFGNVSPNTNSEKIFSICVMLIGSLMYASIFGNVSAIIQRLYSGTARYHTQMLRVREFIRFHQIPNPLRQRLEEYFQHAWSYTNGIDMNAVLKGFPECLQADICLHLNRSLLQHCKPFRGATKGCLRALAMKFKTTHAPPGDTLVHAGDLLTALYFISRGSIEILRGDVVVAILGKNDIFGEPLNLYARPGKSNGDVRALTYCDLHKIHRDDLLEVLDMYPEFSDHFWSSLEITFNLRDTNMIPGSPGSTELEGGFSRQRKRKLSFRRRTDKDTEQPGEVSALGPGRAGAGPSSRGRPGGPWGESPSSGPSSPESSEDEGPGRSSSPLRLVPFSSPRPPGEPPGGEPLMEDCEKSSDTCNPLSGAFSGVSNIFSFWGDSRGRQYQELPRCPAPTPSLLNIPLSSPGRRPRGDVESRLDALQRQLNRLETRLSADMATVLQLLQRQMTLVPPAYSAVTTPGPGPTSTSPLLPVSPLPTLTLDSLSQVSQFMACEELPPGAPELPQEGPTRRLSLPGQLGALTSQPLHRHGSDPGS
row,SMILES,"hERG current change (%, negative = inhibition) at 10uM [%]"
1,Cc1nn(C)c(C)c1S(=O)(=O)N(CC(=O)Nc1ccccn1)c1ccc(C(C)C)cc1,-7.4
2,O=C(O)[C@@H]1CCCN1C(=O)CCc1c[nH]c2ccccc12,17.3
3,NC(=O)c1ccc(NS(=O)(=O)c2ccccc2F)cc1,-0.645
4,O=c1[nH]c(N2CCOCC2)nc2c1CCCC2,10.2
5,C#CCOCCOCCOCCNc1nc(N2CCN(C(=O)[C@H](C)n3cc(CCC[NH+]=C(N)N)nn3)CC2)nc(N2CCN(C(=O)[C@H](C)n3cc(CCC[NH+]=C(N)N)nn3)CC2)n1.[Cl-],-6.89
6,CCSc1nnc(NC(=O)c2c(-c3ccccc3Cl)noc2C)s1,0.719
7,Cc1cccc(NC(=O)CSCC(=O)N(CCC(C)C)c2c(N)n(Cc3ccccc3)c(=O)[nH]c2=O)c1,-8.08
8,NC(=O)CSc1oc(-c2ccc(F)cc2)nc1S(=O)(=O)c1ccccc1,-8.24
9,CCCn1c(SCC(=O)Nc2sc(C)c(C)c2C#N)nnc1C(C)C,-9.76
10,Cc1cc(O)c2c(c1)OC(C)(C)C1=C2CC(C)CC1 (stereo not drawn),7.38
11,CCN(CC)CCNCc1ccc(OCc2ccc(Cl)nc2)c(OC)c1,-14.6
12,CCC(=O)Nc1cc(SCCO)cc([N+](=O)[O-])c1,5.96
13,CCOC(=O)N1CCN(C(=O)C2CCC(=O)N(CCCc3ccccc3)C2)CC1 (stereo not drawn),3.58
14,Fc1ccc(N2CCN(Cc3cc4c(cc3Br)OCO4)CC2)cc1,7.74
15,COC(=O)c1ccccc1NC(=O)N1c2ccccc2CC1C (stereo not drawn),-11.5
16,CC(NS(=O)(=O)c1ccc2[nH]c(=O)c(=O)[nH]c2c1)C(=O)O (stereo not drawn),14.4
17,CC(C)N1CC(COc2ccc(Cl)cc2Cl)OC1=O (stereo not drawn),-44.6
18,CCCOC(=O)c1ccc(Oc2cn[nH]c2-c2ccc(O)cc2O)cc1,24.6
19,COc1ccc(/C=C/C(=O)c2cc(Br)ccc(=O)c2O)cc1,11.9
20,CCN(CC)CCCN=Cc1c(O)n(Cc2ccc(F)cc2)c(=O)[nH]c1=O,-33.7
21,CC1CN(C(=O)c2cc(-c3ccc(Cl)s3)nc3ccccc23)CC(C)O1 (stereo not drawn),-6.18
22,CC1CCCCN1C(=O)c1ccc(C(=O)N2CCCCC2C)cc1 (stereo not drawn),-4.56

row,SMILES,"hERG current change (%, negative = inhibition) at 10uM [%]"
1,COC(=O)c1cc(OC)c(OC)cc1NC(=S)N1CCC(C(N)=O)CC1,-4.78
2,COc1cc2c(cc1OC)CN(C(=O)CCOc1ccccc1C)CC2,-5.81
3,CC(C)=CCN1CCN(Cc2coc3ccc(C)cc3c2=O)CC1CCO (stereo not drawn),-23.6
4,COC(=O)CSc1nnc(CCc2nc3ccccc3[nH]2)n1C,6.11
5,COCCn1c(-c2ccccc2)cnc1N,-16
6,CSc1nnc(Cn2c(=O)sc3ccccc32)n1-c1cccc(Cl)c1,-37.9
7,CCOc1ccc(C(=O)Nc2nc3ccccc3[nH]2)cc1OCC,-22.8
8,COC(=O)C1SCC2C(=O)N(Cc3ccc(Cl)c(Cl)c3)CC(=O)N21 (stereo not drawn),-10.1
9,COc1cc(/C=C/C(=O)OCc2csc(CC(=O)Nc3ccc(C)cc3)n2)ccc1OCC#N,7.63
10,Cc1nc2ccccc2c(=O)n1-c1cccc([N+](=O)[O-])c1,8.49
11,Cc1ccccc1-c1nnn(C/C(N)=N/O)n1,20.9
12,CN(C(=O)c1ccc(NC(=O)Cc2cccc(NC(=O)C3CCN(C(=O)CCc4ccccc4)CC3)c2)cc1)C1CCCC1,7.84
13,CCC(C)(C)n1nnnc1C(c1ccc(C)cc1)N1CCCC1.Cl (stereo not drawn),-11.7
14,O=C1NC[C@H](Cc2ccccc2)N(CCc2cccc(F)c2)C1=O,-7.97
15,COc1ccccc1OCCSc1nc2ccccc2n1CC(N)=O,18.7
16,Cc1ncc(C[n+]2csc(CCOC(=O)C34CC5CC(CC(C5)C3)C4)c2C)c(N)n1.Cl.[Cl-],-31.3
17,CCC(C)n1c(O)c(/C=N/NC(=O)c2ccncc2)c(=O)[nH]c1=S (stereo not drawn),-2.03
18,COC(=O)c1ccc(-c2ccco2)n1Cc1nc(-c2ccc(OC)c(OC)c2)oc1C,-2.63
19,COc1ccc(CCN(C)C2CCCN(S(=O)(=O)N(C)C)C2)cc1OC (stereo not drawn),-8.26
20,O=C1CC(c2cccnc2)=NN1c1ccccc1,17.5
21,CCOc1ccc(Br)cc1CC(=O)O,0.738
22,CC1CCCCN1C(=O)Cn1c(=O)oc2cc(S(=O)(=O)N3CCCC3)ccc21 (stereo not drawn),7.08

row,SMILES,"hERG current change (%, negative = inhibition) at 10uM [%]"
1,Cc1ccc(Nc2oc(C)nc2C#N)cc1,5.2
2,CCOC(=O)C1CCCN(CCC(=O)Nc2cccc(C)c2)C1.Cl (stereo not drawn),-24.5
3,COc1cccc(NC(=O)CN(C)S(=O)(=O)c2ccc3[nH]c(=O)oc3c2)c1,12
4,COc1ccccc1C(=O)NCC(=O)OCc1csc(-c2ccccc2)n1,-4.62
5,CCOc1ccc2nc(NC(=O)CN3C(=O)C4CCCCC4C3=O)sc2c1 (stereo not drawn),-9.62
6,CCOc1ccc2[nH]c3c(c2c1)CNCC3,-3.72
7,CCc1ccc(-n2nnnc2SCC(=O)Nc2ccc(NC(C)=O)cc2)cc1,23.5
8,Cc1nn(-c2ccc(C(=O)O)cc2)c2c1C(=O)CC(C)(C)C2,15
9,O=C1c2ccc3c4c(ccc(c24)C(=O)N1NC(=O)C(F)(F)F)CC3,4.47
10,CN1C(=O)CSC1=Nc1cccc(Cl)c1,-0.00382
11,COc1cc(C(=O)NCCOc2ccccc2)c(Br)c(OC)c1OC,-31.3
12,Cc1cc(C)n(-c2nc(C(=O)O)cs2)n1,17.7
13,CC(C)CN(C(=O)CN1CCC(C)CC1)c1c(N)n(CC(C)C)c(=O)[nH]c1=O,18.7
14,CC(=O)Nc1ccc(NC(=O)CCCNC(=O)c2ccc(Cl)cc2)cc1,21.8
15,OCCN(CCO)c1ccc(C(c2ccc(Cl)cc2)c2ccc(N(CCO)CCO)cc2Cl)c(Cl)c1,-9.81
16,O=C(c1ccc(F)cc1)N1CCN(c2cc(=O)[nH]nc2-c2ccccc2)CC1,-4.51
17,Nc1nnc(CC(=O)N/N=C\c2ccc(-c3cccc(Cl)c3)o2)s1,-18.4
18,O=S(=O)(NC1c2cccc3cccc(c23)C1N1CCNCC1)c1ccc(Cl)cc1 (stereo not drawn),-42.3
19,COC(=O)CN(c1ccc2c(c1)OCO2)S(=O)(=O)c1c(C)[nH]c(=O)[nH]c1=O,-4.17
20,Cn1c(=O)c2c(nc(CN3CCc4ccccc4C3)n2CC(=O)c2ccccc2)n(C)c1=O,-0.421
21,CCO/N=C(\C)c1c(O)c(CC)c(-c2ccccc2)n(-c2ccccc2)c1=O,0.757
22,CSc1ccc(COC(=O)CCS(=O)(=O)c2ccc(C)cc2)cc1,-9.83

row,SMILES,"hERG current change (%, negative = inhibition) at 10uM [%]"
1,O=C1CCCN1CC(=O)N1CCCC(N2CCN(c3cccc(Cl)c3)CC2)C1 (stereo not drawn),8.15
2,CCC(C)n1c(O)c(/C=N/N2CCOCC2)c(=O)[nH]c1=S (stereo not drawn),-16.4
3,CC(=O)N(C)c1nc(N)n(-c2ccccc2)n1,-25.2
4,CCOC(=O)c1c(N2CCN(c3ccccc3)CC2)cc(C)nc1C.O=C([O-])C(=O)[O-],-72
5,COc1cccc(NC(=O)CN2CCN(c3ccc(F)cc3)CC2)c1,-17
6,COCCNC(=O)c1c[nH]c2ccc(OC)cc2c1=O,-17.6
7,CCC(=O)Nc1nnc(S(=O)(=O)N(CC(C)C)c2ccccc2)s1,21.3
8,O=C(CCCN1C(=O)c2cccnc2C1=O)Nc1ccc(F)cc1Cl,3.87
9,C[C@@]12C(=O)N(Cc3ccc(Cl)cc3)CC(=O)N1[C@H]1c3ccccc3OC[C@@H]1[C@@H]2c1ccccc1,7.87
10,Cc1c(Br)c([N+](=O)[O-])nn1CC(=O)NCCc1c[nH]c2ccccc12,-16.2
11,Cc1ccc(C(=O)C(C)OC(=O)Cn2[nH]c(=O)c3ccccc3c2=O)cc1 (stereo not drawn),27.2
12,O=C(O)CCn1cc(C=C2C(=O)NC(=O)NC2=O)c(-c2ccc(Br)cc2)n1,7.08
13,O=C(OCCNc1nc(-c2ccccc2)nc2ccccc12)c1cccnc1,-35.6
14,COc1cccc(CN(C)C(=O)c2ccc3c(=O)n4c(nc3c2)CCC4)c1OC,7.82
15,O=C(Nc1ccc(Cl)cc1)Nc1ccc(N2CCCC2)c(S(=O)(=O)Nc2ccccc2Cl)c1,14.3
16,COc1ccc(C2c3sc(=O)[nH]c3SC3C(=O)N(c4ccccc4)C(=O)C32)cc1 (stereo not drawn),1.65
17,O=[N+]([O-])c1ccccc1OCCCOc1cccc2cccnc12,-15.3
18,NC(=O)C1CCCN1 (stereo not drawn),26.5
19,CCOC(=O)c1c(N2C(=O)Nc3ccccc3N2O)sc2c1CCCC2,4.51
20,COCCn1c(=O)[nH]c2cc(C(=O)NCCN3CCN(c4cccc(Cl)c4)CC3)ccc2c1=O,12.8
21,Cc1nc2nc[nH]n2c(=O)c1NC(=O)c1cccc(OCC(C)C)c1,4.96
